# Measured values taken from article PMC11318003 (ACS Medicinal Chemistry Letters, 2024).
# Counter-ions that a name gives are not always drawn.
# Tests used:
# galectin-1 = galectin-1 (Homo sapiens, UniProt P09382)
# galectin-4N = galectin-4N (Homo sapiens, UniProt P56470)
# galectin-7 = galectin-7 (Homo sapiens, UniProt P47929)
# [1] = human plasma, 1 μM, 37 °C; for Plasma stability, remaining percentage at 0 h: 0 h (reference time point)
# physchem [2] = details: pH 7.4, aqueous buffer, kinetic from dmso stock
# physchem [3] = details: pH 7.4
# physchem [4] = details: buffer
# in vitro [5] = details: human, plasma
# in vitro [6] = details: CD1, mouse, microsomes; for half-life: pH 7.4; for microsomal CLint at 1 µM: mouse liver microsomes, 45 minutes
# in vitro [7] = details: human, microsomes; for half-life: pH 7.4; for microsomal CLint at 1 µM: human liver microsomes, 45 minutes
# in vitro [8] = details: PAMPA, pH 7.4
# galectin-4C = galectin-4C (Homo sapiens, UniProt P56470); test: biochemical
# Caco-2 = details: cited from earlier work
# galectin-9C = galectin-9C (Homo sapiens, UniProt O00182)
# galectin-9N = galectin-9N (Homo sapiens, UniProt O00182)
# [9] = PAMPA, pH 7.4
# galectin-3 = galectin-3 (Homo sapiens, UniProt P17931)
# [10] = cited from earlier work
# [11] = pH 7.4, CLint (mouse), first incubation
# [12] = pH 7.4, CLint (mouse), second incubation
# [13] = pH 7.4, CLint (human), first incubation
# [14] = pH 7.4, CLint (human), second incubation
# Sequence of galectin-7 (P47929 whole entry): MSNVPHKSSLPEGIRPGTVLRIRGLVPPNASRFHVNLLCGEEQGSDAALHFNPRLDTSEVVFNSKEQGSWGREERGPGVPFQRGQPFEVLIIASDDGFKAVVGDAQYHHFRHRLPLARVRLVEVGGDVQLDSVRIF
# Sequence of galectin-3 (P17931 whole entry): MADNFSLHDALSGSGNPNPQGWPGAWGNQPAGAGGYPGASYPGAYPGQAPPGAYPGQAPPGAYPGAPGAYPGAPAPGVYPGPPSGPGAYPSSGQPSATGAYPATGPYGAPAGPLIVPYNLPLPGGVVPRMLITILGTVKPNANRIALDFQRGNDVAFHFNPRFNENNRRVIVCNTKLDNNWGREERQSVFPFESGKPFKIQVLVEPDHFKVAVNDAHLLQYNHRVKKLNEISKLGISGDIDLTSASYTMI
# Sequence of galectin-9N (O00182 17-148): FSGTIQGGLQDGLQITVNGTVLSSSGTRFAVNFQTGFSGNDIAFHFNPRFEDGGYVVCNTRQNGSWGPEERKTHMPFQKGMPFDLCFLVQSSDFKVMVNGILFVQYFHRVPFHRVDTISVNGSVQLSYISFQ
# Sequence of galectin-4C (P56470 194-323): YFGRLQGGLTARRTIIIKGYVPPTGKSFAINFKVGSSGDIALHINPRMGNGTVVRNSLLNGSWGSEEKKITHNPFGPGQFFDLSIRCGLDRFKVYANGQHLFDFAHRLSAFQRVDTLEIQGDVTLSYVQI
# Sequence of galectin-1 (P09382 whole entry): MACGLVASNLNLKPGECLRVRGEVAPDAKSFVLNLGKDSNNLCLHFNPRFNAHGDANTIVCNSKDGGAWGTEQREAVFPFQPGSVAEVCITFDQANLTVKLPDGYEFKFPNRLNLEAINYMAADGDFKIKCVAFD
# Sequence of galectin-9C (O00182 227-355): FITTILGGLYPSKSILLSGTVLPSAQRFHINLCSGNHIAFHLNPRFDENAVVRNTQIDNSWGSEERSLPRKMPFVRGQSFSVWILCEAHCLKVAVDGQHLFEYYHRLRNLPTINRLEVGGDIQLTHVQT
# Sequence of galectin-4N (P56470 19-150): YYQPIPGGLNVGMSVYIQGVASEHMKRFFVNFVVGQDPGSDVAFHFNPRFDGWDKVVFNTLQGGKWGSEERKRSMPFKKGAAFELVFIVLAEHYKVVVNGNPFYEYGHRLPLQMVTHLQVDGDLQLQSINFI
Structure (SMILES),Kd galectin 7 (galectin-7),logD (physchem [3]),remaining at 120 h (physchem [4]; pH 4) [%],half-life (in vitro [6]) [min],microsomal CLint (in vitro [6]; [11]) [µL/min/mg],microsomal CLint (in vitro [6]; [12]) [µL/min/mg],"microsomal CLint (in vitro [6]; pH 7.4, CLint Average (mouse)) [µL/min/mg]",half-life (in vitro [7]) [min],microsomal CLint (in vitro [7]; [13]) [µL/min/mg],microsomal CLint (in vitro [7]; [14]) [µL/min/mg],remaining at 120 h (physchem [4]; pH 9.5) [%],half-life (in vitro [5]) [min],"microsomal CLint (in vitro [7]; pH 7.4, CLint Average (human)) [µL/min/mg]",other results
O=c1c2ccccc2c(-c2ccc(F)cc2)nn1CO[C@@H]1C=CO[C@H](CO)[C@@H]1O [Compound 6],N.B. ^b,1.7,97,27,50,51,51,> 140,< 10,< 10,,,,"Kd galectin 1 (galectin-1): N.B. ^b; Kd galectin 4N (galectin-4N): N.B. ^b; Plasma stability, remaining percentage at 2 h ([1]; relative to 0 h): 81%; Plasma stability, remaining percentage at 8 h ([1]; relative to 0 h): 86%; Plasma stability, remaining percentage at […] ([1]; relative to 0 h): 100%; solubility at 24 h (physchem [2]): 94 µM; remaining at 120 h, 100 µM (physchem [4]; pH 9.5): > 99%; half-life at 1 µM (in vitro [5]): > 960 min; microsomal CLint at 1 µM (in vitro [7]; pH 7.4, CLint Average (human)): < 10 µL/min/mg; Papp (in vitro [8]): 6.7 ± 1.55 ×10⁻⁶ cm/s; Kd (galectin-4C): 1.5 ± 0.17 mM"
C[C@@H]1C[C@H]2[C@@H]3CCC4=CC(=O)C=C[C@]4(C)[C@@]3(F)[C@@H](O)C[C@]2(C)[C@@]1(O)C(=O)CO [Dexamethasone],,,,,,,,,,,,,,Caco-2 (Caco-2): 13.4 ± 1.3 ×10⁻⁶ cm/s
Cc1ccc(-c2nn(CO[C@@H]3C=CO[C@H](CO)[C@@H]3O)c(=O)c3ccccc23)cc1 [Compound 9],N.B. ^b,2.5,,10,,,137,> 140,,< 10,> 99,456,,"Kd galectin 9C (galectin-9C): N.B. ^b; Kd galectin 9N (galectin-9N): N.B. ^b; Plasma stability, remaining percentage at 0 h [1]: 100%; Plasma stability, remaining percentage at 1 h ([1]; relative to 0 h): 88%; solubility at 24 h (physchem [2]): > 95 µM; remaining at 120 h, 100 µM (physchem [4]; pH 4): 96%; microsomal CLint at 1 µM (in vitro [6]; [11]): 136 µL/min/mg; microsomal CLint at 1 µM (in vitro [6]; [12]): 138 µL/min/mg; microsomal CLint at 1 µM (in vitro [7]; [13]): < 10 µL/min/mg; microsomal CLint at 1 µM (in vitro [7]; pH 7.4, CLint Average (human)): < 10 µL/min/mg"
N=C(N)NC(=O)c1nc(Cl)c(N)nc1N [Amiloride HCl],,,,,,,,,,,,,,Permeability [9]: 0.0 ± 0.10 10-6 cm/s
O=c1c2ccccc2cnn1CO[C@@H]1C=CO[C@H](CO)[C@@H]1O [Compound 1],N.B. ^b,1,96,> 140,< 10,< 10,< 10,> 140,,< 10,> 99,> 960,< 10,"Plasma stability, remaining percentage at 2 h ([1]; relative to 0 h): 86%; Plasma stability, remaining percentage at 4 h ([1]; relative to 0 h): 89%; solubility (physchem [2]): > 95 µM; microsomal CLint at 1 µM (in vitro [7]; [13]): < 10 µL/min/mg"
O=c1c2ccccc2c(-c2ccc(Cl)cc2)nn1CO[C@@H]1C=CO[C@H](CO)[C@@H]1O [Compound 7],N.B. ^b,2.3,,23,56,65,61,,12,,99,> 960,10,"Kd galectin 1 (galectin-1): N.B. ^b; Kd galectin 3 (galectin-3): N.B. ^b; Kd galectin 4N (galectin-4N): N.B. ^b; Kd galectin 9C (galectin-9C): N.B. ^b; Kd galectin 9N (galectin-9N): N.B. ^b; Plasma stability, remaining percentage at 2 h ([1]; relative to 0 h): 95%; Plasma stability, remaining percentage at 4 h ([1]; relative to 0 h): 96%; solubility (physchem [2]): 63 µM; remaining at 120 h, 100 µM (physchem [4]; pH 4): 97%; microsomal CLint at 1 µM (in vitro [7]; [14]): < 10 µL/min/mg; Kd (galectin-4C): 1.6 ± 0.2 mM"
"COc1ccc2c(c1)[C@]13CCCC[C@@H]1[C@H](C2)N(C)CC3 [Dextromethorphan, reference compound]",,,,,,,,107,13,,,,13,Reference clearance values (human) [10]: 25 ± 10 µL/min/mg
O=c1c2ccccc2c(-c2ccccc2)nn1CO[C@@H]1C=CO[C@H](CO)[C@@H]1O [Compound 2],N.B. ^b,1.7,> 99,17,,,85,> 140,,,> 99,> 960,< 10,"Kd galectin 3 (galectin-3): N.B. ^b; Plasma stability, remaining percentage at 0 h [1]: 100%; microsomal CLint at 1 µM (in vitro [6]; [11]): 78 µL/min/mg; microsomal CLint at 1 µM (in vitro [6]; [12]): 91 µL/min/mg; microsomal CLint at 1 µM (in vitro [7]; [13]): < 10 µL/min/mg; microsomal CLint at 1 µM (in vitro [7]; [14]): < 10 µL/min/mg"
O=c1c2ccccc2c(-c2ccc(Br)cc2)nn1CO[C@@H]1C=CO[C@H](CO)[C@@H]1O [Compound 10],,2.2,91,36,38,39,39,126,11,11,95,> 960,11,"Plasma stability, remaining percentage at 4 h ([1]; relative to 0 h): 84%; solubility (physchem [2]): 42 µM; Papp (in vitro [8]): 7.4 ± 1.5 ×10⁻⁶ cm/s; Kd (galectin-4C): 1.4 ± 0.13 mM"
CC(C)(C)NCC(O)COc1cccc2c1CC(O)C(O)C2 (centres unmarked) [Nadolol],,,,,,,,,,,,,,Caco-2 (Caco-2): 1.7 ± 0.4 ×10⁻⁶ cm/s
"Cc1cc(=O)n(-c2ccccc2)n1C [Antipyrine, reference compound]",,,,,,,,,,,,,,Papp (in vitro [8]): 8.9 ± 0.85 ×10⁻⁶ cm/s
O=c1c2ccccc2c(-c2ccc(Cl)c(Cl)c2)nn1CO[C@@H]1C=CO[C@H](CO)[C@@H]1O [Compound 8],,,,,,,,,,,,,,Kd galectin 1 (galectin-1): N.B. ^b; Kd galectin 3 (galectin-3): N.B. ^b; Kd galectin 9C (galectin-9C): N.B. ^b; Kd galectin 9N (galectin-9N): N.B. ^b
